Experimental data: the BET-seq Pho4 binding data (Le et al. 2018)
The list shows a part of the results. The energies were worked out here from pooled read counts, against the library average; single values are noisy.

Biological target: T1, Pho4 (S. cerevisiae) (UniProt P07270)
T1 sequence: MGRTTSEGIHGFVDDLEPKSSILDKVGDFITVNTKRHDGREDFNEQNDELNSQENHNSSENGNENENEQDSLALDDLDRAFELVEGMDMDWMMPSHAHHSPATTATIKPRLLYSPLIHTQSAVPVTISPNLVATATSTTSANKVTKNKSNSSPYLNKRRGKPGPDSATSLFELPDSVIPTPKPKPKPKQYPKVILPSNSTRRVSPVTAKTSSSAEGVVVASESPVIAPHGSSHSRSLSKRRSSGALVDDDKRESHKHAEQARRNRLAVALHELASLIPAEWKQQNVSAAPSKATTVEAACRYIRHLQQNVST
Assay: relative binding free energy (BET-seq); higher = weaker binding
Conditions: reference: library average

Relative binding free energy, 0.06 kcal/mol:
CGCTGCACGTGATTGG
ATTTTCACGTGCGAGT
GTGATCACGTGGTGGG
CGTCTCACGTGTGTGG
ACATACACGTGTGGGT
ATAAACACGTGTAGTA

Relative binding free energy, 0.24 kcal/mol:
GGAATCACGTGTATTG

Relative binding free energy, -0.23 kcal/mol:
TTAAGCACGTGGCTTT

Relative binding free energy, 0.08 kcal/mol:
AGAATCACGTGGCGTG
TAGCACACGTGTGGGG
TGGCACACGTGATGGG
GGGTACACGTGGATGG
TTGCGCACGTGTACTT
GCAGTCACGTGTGTGA
TGTGTCACGTGACGCT
TGGAGCACGTGTAATT
TTGGTCACGTGCTTCG

Relative binding free energy, 0.25 kcal/mol:
GTCGTCACGTGTGTTG
TCTGTCACGTGTAGGA
AGCGTCACGTGAGGAG
GGGTACACGTGAATTA
TTGTACACGTGAGTAC

Relative binding free energy, 0.21 kcal/mol:
CAGCTCACGTGGGGGG
TAAGTCACGTGTATGA
AGGTCCACGTGAGGAG
TCTGTCACGTGAGTTG
CTTGTCACGTGAAATG

Relative binding free energy, -0.01 kcal/mol:
TTGTGCACGTGGTAGT
GTGTACACGTGTCATG
AATTACACGTGGTTTA
TTAGGCACGTGAGCGT
CGAGTCACGTGTTGTA
CAGTACACGTGGTTTG
GCGGTCACGTGGGGCG
ACCGGCACGTGTAGGT
TAGTGCACGTGTCAGT

Relative binding free energy, -0.05 kcal/mol:
TGTTGCACGTGATCAT
TTGGGCACGTGTGCTT

Relative binding free energy, 0.31 kcal/mol:
CATTTCACGTGTGTGG
GGGTTCACGTGTACTG

Relative binding free energy, -0.18 kcal/mol:
CGTCGCACGTGGGTAG
ATAGACACGTGGCGGG
TTAGGCACGTGCGGGC

Relative binding free energy, -0.08 kcal/mol:
TAGAGCACGTGTATTG
CTTAACACGTGGGGCT
TATGCCACGTGTGAGG
TGTATCACGTGGGGTA
GAAAACACGTGGGGTG

Relative binding free energy, -0.04 kcal/mol:
GGGTCCACGTGCATGG
TAAGTCACGTGGCTTG
TTTGCCACGTGTTGGC

Relative binding free energy, 0.27 kcal/mol:
TCTCTCACGTGTTGTT
GATGTCACGTGATTGT
CTGATCACGTGTGGGA

Relative binding free energy, 0.5 kcal/mol:
TGGTTCACGTGAGATG

Relative binding free energy, 0.1 kcal/mol:
GAATGCACGTGATAGG
CTGGGCACGTGAGAGG
TGTGTCACGTGTGGAA
CTGTGCACGTGAAGTG

Relative binding free energy, 0.01 kcal/mol:
GCTAGCACGTGTCGGG
ATTGTCACGTGGTGCG
GGACACACGTGGTGGT
ATTGACACGTGTGTGA
CGTGGCACGTGTGGGA

Relative binding free energy, 0.34 kcal/mol:
CGTCTCACGTGATGGT
AGATTCACGTGATTGT
CGTCTCACGTGGTTGT

Relative binding free energy, 0.43 kcal/mol:
TACTTCACGTGAGGTT

Relative binding free energy, -0.37 kcal/mol:
TATACCACGTGGGGTG

Relative binding free energy, -0.26 kcal/mol:
CAGGGCACGTGGGTAG

Relative binding free energy, -0.06 kcal/mol:
CATGGCACGTGACGGG
TGCGTCACGTGCTTGT
ATTGGCACGTGTCAAG
TTCTACACGTGGGATG

Relative binding free energy, 0.12 kcal/mol:
CTGGACACGTGTTATT
TGGTTCACGTGGCACT
TAAATCACGTGTTTCG

Relative binding free energy, 0.09 kcal/mol:
ATTAACACGTGGATAG
TACATCACGTGTAGGT
TCGTGCACGTGATGTA
GTGTGCACGTGTGGAG

Relative binding free energy, -0.09 kcal/mol:
CGATGCACGTGGTTTT
CGATGCACGTGGGTTT
TGTAACACGTGTAGCG
ATTGTCACGTGGGGCG

Relative binding free energy, 0.16 kcal/mol:
GATTGCACGTGTATAA
GCAGGCACGTGAGGTA
ATGGACACGTGAGGTT
TAATTCACGTGGCGGT

Relative binding free energy, -0.07 kcal/mol:
TGATACACGTGTGGAT
AAATACACGTGTTGTT
GGAAACACGTGTATGT
TTGTCCACGTGGCGGG
CAGTGCACGTGGGGTT
TAAAGCACGTGGTAGC
TTGTGCACGTGTTACT
CTTGACACGTGGCGGT

Relative binding free energy, 0.22 kcal/mol:
ATGGACACGTGTAGAT

Relative binding free energy, -0.03 kcal/mol:
TCTGCCACGTGTGTTT
AAGGTCACGTGGGGTC
TGGGTCACGTGCTCAG
CAGGACACGTGGGGGC
ATAGGCACGTGTGTAA
TTTAACACGTGGTGGT
ATTATCACGTGCTGGT

Relative binding free energy, 0.23 kcal/mol:
AAACTCACGTGGAGGG
GGATTCACGTGCTTGG
ATCTTCACGTGGGTGC

Relative binding free energy, -0.21 kcal/mol:
AGTAGCACGTGCGGGC

Relative binding free energy, 0.19 kcal/mol:
GCGTGCACGTGAGGAG
GGTTCCACGTGATCGG
GGGCGCACGTGATGAT

Relative binding free energy, 0.04 kcal/mol:
GTTTACACGTGGTGTA
GTCGTCACGTGCTGTG
ATACTCACGTGTGTTA

Relative binding free energy, 0.17 kcal/mol:
CTAATCACGTGTTTTT
GGGCTCACGTGTTTGG
AATATCACGTGTGCTG
AGCATCACGTGTGATT

Relative binding free energy, 0.14 kcal/mol:
TTTTCCACGTGTTTAT
GGGTGCACGTGTGACT
GTTTGCACGTGATACG
GTTTACACGTGGGATC
TCTTACACGTGTTCGG
TGCGTCACGTGAGGCT

Relative binding free energy, -0.12 kcal/mol:
ATGGACACGTGTTCTG
GTGAACACGTGGGGGA

Relative binding free energy, 0.11 kcal/mol:
GGCCGCACGTGGTATT
GAAGACACGTGGTATT
CGTTGCACGTGTTAGC
ATTTGCACGTGATTAT
ATTGGCACGTGAGTAT

Relative binding free energy, 0.05 kcal/mol:
GCTGTCACGTGCTGGG
ATAGTCACGTGGCTTG
TAATGCACGTGTAGAA
CGGTGCACGTGTCGTT
GTGTCCACGTGTGGGC

Relative binding free energy, -0.02 kcal/mol:
TTCAGCACGTGTGTGC
TCTCGCACGTGTGTTT
TCATGCACGTGTGTAT
TATGGCACGTGGGAAT

Relative binding free energy, -0.1 kcal/mol:
TGGTGCACGTGGGTCA
TTCGGCACGTGGCGAT
TTAAACACGTGGGGGC
GTGGGCACGTGGCGCA
GAAAACACGTGGGGGA

Relative binding free energy, -0.11 kcal/mol:
GCAAGCACGTGTTGTT
GGGAGCACGTGTACGT
GAGGGCACGTGTCAGG
AGAGGCACGTGGGATG
AAAAGCACGTGGTGGT
GTGTGCACGTGGGGGC

Relative binding free energy, -0.13 kcal/mol:
TGGTGCACGTGACGTA
CTAAGCACGTGAGGGG

Relative binding free energy, 0.28 kcal/mol:
GGAGTCACGTGACGGG
TGGTACACGTGAGGAG

Relative binding free energy, -0.31 kcal/mol:
TGGCGCACGTGCGGCG
AGGCGCACGTGCTTGG

Relative binding free energy, 0.2 kcal/mol:
ATCTTCACGTGTGGGT
CAGTTCACGTGGTTAT
CGAGACACGTGTGGCG
AGTCACACGTGTGTTG
CAGGTCACGTGGACGT
AAATTCACGTGGTGGG

Relative binding free energy, 0.18 kcal/mol:
GTTTGCACGTGTGTGA
TATTGCACGTGATTAG
TGTCTCACGTGGATGA
TTTTACACGTGCCGGG
AGGATCACGTGATGTT
GAAGTCACGTGTGTGG

Relative binding free energy, 0.39 kcal/mol:
TTGTTCACGTGATGGT

Relative binding free energy, 0.07 kcal/mol:
GTTTGCACGTGTGCGT
ATAATCACGTGGTGTC
AATATCACGTGGTGAA

Relative binding free energy, 0.26 kcal/mol:
ACTTTCACGTGTAATG

Relative binding free energy, -0.15 kcal/mol:
CGTGGCACGTGGTGTT
GGTGCCACGTGGTGGG
GTTGCCACGTGGGGGC

Relative binding free energy, 0 kcal/mol:
GGGTACACGTGCTGCG
CAGAACACGTGTGGGG
GGGAACACGTGTCTGT
GGGTGCACGTGGATCG
AAGGACACGTGGCAGG
TGTTACACGTGGTCTG
TGTGGCACGTGTGTTG

Relative binding free energy, 0.32 kcal/mol:
GGATTCACGTGTCTGG
AGATTCACGTGGAGGA

Relative binding free energy, -0.19 kcal/mol:
AGGTGCACGTGGCGCA

Relative binding free energy, -0.16 kcal/mol:
TGTGGCACGTGCGTGT
CGAGGCACGTGGATGG
TAGCGCACGTGGTTCG

Relative binding free energy, 0.33 kcal/mol:
AATTTCACGTGATAAT
GGGATCACGTGAAAGG

Relative binding free energy, -0.14 kcal/mol:
TGAGGCACGTGCTGTG
TATGGCACGTGTATAA

Relative binding free energy, 0.15 kcal/mol:
AACCTCACGTGTGGGG
TGATCCACGTGTGTTT
AGTGGCACGTGAATGG
TTAATCACGTGCAGTA
GTGGCCACGTGAAGGT
GGGCTCACGTGTGGCT
TCTGTCACGTGTTTTG

Relative binding free energy, 0.29 kcal/mol:
CTGTTCACGTGGCAGG
GTATTCACGTGGAGTG
TCGTTCACGTGTGTTT
CGATTCACGTGTGTGT

Relative binding free energy, 0.02 kcal/mol:
TCAGGCACGTGTGTAG
GTGGGCACGTGATACT
GTTGACACGTGTTTAA
GCGGACACGTGTTGTT
GGTGTCACGTGGGATA

Relative binding free energy, 0.3 kcal/mol:
GGTGGCACGTGAAAAG
ATATGCACGTGAATCG

Relative binding free energy, -0.28 kcal/mol:
TTAAGCACGTGGTATA

Relative binding free energy, 0.03 kcal/mol:
ATGATCACGTGCTGTG
CGCTACACGTGGTGGT
TTGGCCACGTGTTTTG
AATTGCACGTGGAAAG
GTGCGCACGTGGATTG
TGGGACACGTGGTTTG
ATAGTCACGTGCATGG
CGGTGCACGTGTCGAG
ATTTGCACGTGCATTT
CTTGACACGTGTGCGT

Relative binding free energy, -0.2 kcal/mol:
TTAAGCACGTGGGTTT
AAGCGCACGTGGGCTG
GGAGGCACGTGGGGAG

Relative binding free energy, 0.13 kcal/mol:
TTTGACACGTGTATTT
CAGTTCACGTGGGTAT
TGTGACACGTGTAGAG
